Hit rate of the full screen: of about 50,000 compounds, about 800 (1.6%) showed an effect of 50% or more. This is one part of the list.

The experiment deals with Bcl-2-like protein 10 (Homo sapiens) (UniProt Q9HD36). Put plainly: TR3 peptide-Bcl-B binding displacers, biochemical primary FP assay, phenotype converters (AID 1240).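 Also: 0% = Bcl-B with tracer peptide and DMSO and 100% = tracer peptide lacking Bcl-B.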 The note with it: GST-Bcl-B / FITC-TR3 peptide fluorescence polarization; stronger effect = higher value; compound at 3.75 mg/L. A general note: Polarisation of emitted light reports the rotation of a fluorescent probe.
Sequence of UniProt Q9HD36 (Q9HD36 whole entry, looked up): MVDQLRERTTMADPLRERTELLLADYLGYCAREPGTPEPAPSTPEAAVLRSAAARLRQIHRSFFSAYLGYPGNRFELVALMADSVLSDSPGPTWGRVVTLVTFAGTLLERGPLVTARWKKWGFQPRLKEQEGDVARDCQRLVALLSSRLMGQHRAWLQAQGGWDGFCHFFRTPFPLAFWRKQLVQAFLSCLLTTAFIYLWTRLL
Regarding `COc1ccc(/C=C(/C#N)C(=O)Nc2cccc(C(F)(F)F)c2)cc1`, the displacement amounted to 7%.
Then `CC(=O)Nc1ccc(Sc2ccc(NC(C)=O)cc2)cc1`, with -4%.
The figure for `O=[N+]([O-])c1ccc(N2CCOCC2)cc1NC1CC1` is 4%; for `Cc1ccc(C(=O)CCNc2cccc(Cl)c2)o1` it is -20.5%; for `O=C(Nc1ccc(Cl)cc1)c1ccc(S(=O)(=O)c2ccccc2)cc1` it is -3.6%.
Then `Cc1onc(-c2ccccc2)c1C(=O)NCc1cccnc1`, with 8.7%; and `CCOc1cc(C(=O)Nc2ccc(Br)cn2)cc(OCC)c1OCC`, with -0.6%.
On to `CC1CCCCN1C(=O)Nc1ccccc1` (stereo unspecified), for which the displacement came out at 12.8%.
Consider `O=C1C(Nc2ccc(Cl)cc2)=C(N2CCCCC2)C(=O)c2ccccc21`, for which the displacement is -11.5%.
The figure for `Cc1ccc(N(CC(=O)Nc2ccc3ccccc3c2)S(C)(=O)=O)cc1Cl` is 10.4%; for `COc1ccccc1N1C(=O)CC(Sc2ccccc2C(=O)O)C1=O` (stereo unspecified) it is 2.5%; for `O=C(NCCc1ccccc1F)C1CC(=O)N(c2ccc(Br)cc2)C1` (stereo unspecified) it is -4.4%.
In the case of `COC(=O)c1cc(Cl)c(NC(=O)c2cc(OC)c(OC)c(OC)c2)cc1OC`, the displacement is -8.1%.
Then `Cc1cccc2c(=O)oc(-c3cccc([N+](=O)[O-])c3)nc12`, with -6.2%; and `COc1ccc(NC(=O)C2=C(C)NC(=O)NC2c2cccc(Cl)c2)cc1` (stereo unspecified), with 83.7%.
`O=C1NC(=S)N(c2ccc(Br)cc2)C(=O)/C1=C/c1cccs1`: the displacement is 16.2%.
The figure for `Cc1sc2nc(SCc3ccc(C(=O)NCCO)cc3)[nH]c(=O)c2c1C` is -31.9%.
In the case of `COC(=O)c1ccc(-c2ccc(CO)o2)cc1`, the displacement is -3.4%.
Then `COc1cc(/C=N/Nc2nc(Nc3ccccc3)nc(N3CCOCC3)n2)ccc1OCc1ccccc1`, with -1.1%; and `COC(=O)c1cccc(-c2ccc(/C=C3\C(=O)N(c4cccc(C(=O)O)c4)N=C3C)o2)c1`, with 17.3%.
For `CN(C)C1(C)CC2C(C/C1=N\O)C2(C)C` (stereo unspecified), the displacement amounted to 12.1%.
Then `COc1cc(/C=C2/SC(=S)N(C)C2=O)cc(Cl)c1OCCOc1ccc(C)cc1`, with 0.7%; and `COc1ccc(CN2CCN(Cc3ccc4ccccc4c3)CC2)c(OC)c1`, with -1%; and `N#C/C(=C/c1ccc([N+](=O)[O-])o1)C(=O)Nc1cccc(Br)c1`, with 9.1%.
The figure for `COc1cccc(/C=C2\SC(=O)N(CCC(=O)NNC(=O)c3cccc(Cl)c3)C2=O)c1` is -1.6%; for `CC(=O)CC(=O)Nc1ccnn1-c1ccccc1` it is 8.6%.
The figure for `O=C(COc1ccccc1)N1CCN(c2ccc([N+](=O)[O-])cc2Cl)CC1` is -7%; for `Cc1cc(C(C)(C)C)ccc1OC(=O)Nc1ccccc1` it is -0.3%.
In the case of `CNC(=S)NCC12CC3CC(CC(C3)C1)C2`, the displacement is -2.7%.
Then `Cc1cccnc1NC(=O)Cc1ccc([N+](=O)[O-])cc1`, with 3.1%; and `C=CCC1NC2(CCCCC2)Cc2cc(OC)c(OC)cc21` (stereo unspecified), with -19.4%.
As to `NS(=O)(=O)c1ccc(NC(=O)CSCCOC(=O)c2cc3ccccc3o2)cc1`, the displacement amounted to 9.8%.
The figure for `Cc1cc(C)cc(N2C(=O)NC(=O)/C(=C\c3ccc(C(=O)O)cc3)C2=O)c1` is -7.2%; for `CCc1ccc(C2(c3ccc(CC)cc3)C(=O)NCc3ccccc32)cc1` it is 10.9%.
For the compound `COc1ccc(CCN=Cc2cccn2-c2sc3c(c2C#N)CCCC3)cc1OC`, the displacement turned out to be 22.8%.
Then `COc1ccccc1C(=O)OC1CC(C)N(C)CC1C` (stereo unspecified), with 9%; and `COc1cc2c(cc1NS(=O)(=O)c1ccccc1)oc1ccccc12`, with 9.5%.
Then `C=CCOc1c(Br)cc(/C=C2/N=C(c3ccccc3)OC2=O)cc1OC`, with -4.9%; and `O=C(Nc1cccc(-c2nc3cc(Cl)ccc3o2)c1)c1ccc(Cl)cc1`, with 0.2%; and `O=C(Nc1cccc(C(F)(F)F)c1)c1cc([N+](=O)[O-])ccc1Cl`, with -13.5%.
In the case of `Cc1cccc(NC(=O)C2CC(=O)N=C(N)S2)c1` (stereo unspecified), the displacement is 15.4%.
The figure for `O=C(NC(=S)Nc1ccc(Cl)c(Cl)c1)c1ccco1` is 10.7%; for `COc1cc(C(=O)Nc2cc(-c3nc4cc(Cl)cc(Cl)c4o3)ccc2C)cc(OC)c1OC` it is -0.3%; for `Cc1ccc(C(=O)Nc2ccc(S(=O)(=O)N3CCCCC3)cc2)cc1` it is -5.3%.
For `O=C1CC(c2ccc(F)c(F)c2)c2cc(Br)c3ccccc3c2N1` (stereo unspecified), the displacement is -6.1%.
The figure for `CCOC(=O)C(CCCCCOc1ccc(F)cc1)C(=O)OCC` is 12.1%; for `Clc1ccc(N2CCN(N=Cc3ccccc3Br)CC2)cc1` it is -5.3%; for `Cc1nc2n(CC(=O)N3CCCC3)c3ccccc3n2n1` it is -3.1%.
On to `O=C(NC1CCCCC1)c1c(F)cccc1F`, for which the displacement was -1%.
With `O=C(O)C1(O[N+](=O)[O-])C2CC3CC(C2)CC1C3` (stereo unspecified), the displacement is -13.3%.
The figure for `COc1ccc(CN2CCN(C3CCCC(C)C3)CC2)c(OC)c1OC` (stereo unspecified) is -17.3%; for `COc1cc(C2/C(=C(\O)c3ccc(Cl)cc3)C(=O)C(=O)N2CCCCCC(=O)O)ccc1O` (stereo unspecified) it is 0.6%; for `COc1ccc(/C=C/C(=O)Nc2ccc(F)c([N+](=O)[O-])c2)cc1` it is 17.4%.
On to `CCN1C(=O)/C(=C/c2cn(-c3ccccc3)nc2-c2cc3ccccc3n2C)SC1=S`, for which the displacement was -20.2%.
`O=C1C2C3C=CC(C3)C2C(=O)N1c1ncccn1` (stereo unspecified): the displacement was -3.6%.
The figure for `O=C(/C(=C\c1ccc([N+](=O)[O-])cc1)n1cncn1)c1ccc(Cl)cc1Cl` is 9.9%; for `O=C(NCCN1CCOCC1)c1cc(Cl)ccc1Cl` it is 13.8%; for `O=C(N/N=C/c1cccc(O)c1)c1n[nH]c2c1CCC2` it is -10.1%.
Then `CSc1ccc(/C=C(/NC(=O)c2ccc(C)cc2)c2nc3ccccc3[nH]2)cc1`, with -7.3%.
The figure for `CC(=O)NC(NC(C)=O)c1ccccc1Cl` is -4.6%.
`Cn1c(=O)cc2c3c(c(N4CCCC4)ccc31)C(=O)c1ccccc1-2`: the displacement amounted to 38.2%.
The figure for `O=[N+]([O-])c1ccc(CN2CCN(S(=O)(=O)c3ccc(Cl)cc3)CC2)cc1` is -0.2%; for `C/C(=N\NC(=O)C(C)Sc1nc(C)cc(C)n1)c1ccc(Br)cc1` (stereo unspecified) it is 5.3%; for `COc1ccccc1OCC(=O)Nc1cccc(C(=O)O)c1` it is -4.4%.
As for `Cc1ccccc1NC(=O)CSc1nc(O)c(Cc2ccccc2)c(=O)n1-c1ccccc1`, the displacement was determined as 4.9%.
The figure for `Oc1c(C2=NCCCCC2)c2ccccc2n1-c1c(Cl)cccc1Cl` is -2.7%.
Then `CC(C)=CCCC(C)CC1OCC(C)O1` (stereo unspecified), with -13%; and `COc1cccc(NC(=O)/C(=C/c2ccccc2)NC(C)=O)c1`, with 12.4%.
Then `CN(C)CCCCCCCCCCNC(=O)/C=N\O`, with 2.1%; and `Cc1c(N2C(=O)S/C(=C\c3cccc([N+](=O)[O-])c3)C2=O)c(=O)n(-c2ccccc2)n1C`, with 4%.
As to `COc1ccc(NC(=O)c2cnn(-c3ccccc3)c2NC(=O)c2ccc(C)cc2)cc1`, the displacement is 3.7%.

Source of the values: PubChem BioAssay AID1240 (Sanford-Burnham Center for Chemical Genomics, 2008).
